# The other results are listed elsewhere or left out. The main result of the screen is listed elsewhere. These columns were measured beside it and carry no call.
# Experiments:
# Test in all cases: Primary Screen for Target Class Profiling of Small Molecule Inhibitors of Methyltransferases
# [1] = biological target: Glycine N-methyltransferase (Homo sapiens) (UniProt Q14749); conditions: purified enzyme, MTase-Glo SAH luminescence; measured here: GNMT inhibition; at 40 µM; stronger effect = lower value
# Procedure, shortened: (§1)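 Each enzyme was reacted with SAM and its substrate, with compounds tested once at 40 uM; SAH formed was read by MTase-Glo luminescence.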
# [2] = biological target: Guanidinoacetate N-methyltransferase (Homo sapiens) (UniProt Q14353); conditions: purified enzyme, MTase-Glo SAH luminescence; measured here: GAMT inhibition; at 40 µM; stronger effect = lower value
# Procedure, shortened: as §1
# [3] = biological target: Histamine N-methyltransferase (Homo sapiens) (UniProt P50135); conditions: purified enzyme, MTase-Glo SAH luminescence; measured here: HNMT inhibition; at 40 µM; stronger effect = lower value
# Procedure, shortened: as §1
# [4] = biological target: Nicotinamide N-methyltransferase (Homo sapiens) (UniProt P40261); conditions: purified enzyme, MTase-Glo SAH luminescence; measured here: NNMT inhibition; at 40 µM; stronger effect = lower value
# Procedure, shortened: as §1
# [5] = biological target: Phenylethanolamine N-methyltransferase (Homo sapiens) (UniProt P11086); conditions: purified enzyme, MTase-Glo SAH luminescence; measured here: PNMT inhibition; at 40 µM; stronger effect = lower value
# Procedure, shortened: as §1
# % is scaled to controls: 0 for no effect and ±100 for the full control effect.
SMILES,"activity change, negative = inhibition [1]","activity change, negative = inhibition [2]","activity change, negative = inhibition [3]","activity change, negative = inhibition [4]","activity change, negative = inhibition [5]"
CC(C)n1c(=O)c2ccc(C(=O)NC3CCCCC3)cc2n2c(=O)n(CC(=O)N(C)c3ccccc3)nc12,0.814%,4.63%,4.28%,0.007%,1.77%
CC(C)NC(=O)CSc1nnc2n(C)c(=O)c3ccc(C(=O)NC4CCCCC4)cc3n12,-1.94%,0%,7.25%,5.57%,7.52%
O=C(c1ccc2c(=O)nc3c(-c4ccccc4)n[nH]n3c2c1)N1CCN(c2ccccc2)CC1,0.672%,1.54%,1.15%,4.72%,2.19%
Cc1cc(Nc2cc(N3CCN(C)CC3)nc(/C=C/c3ccccc3)n2)n[nH]1,-14.9%,-4.55%,-29.5%,-23.8%,-6.61%
COc1ccc2cc(-c3nc(-c4ccc(S(C)=O)cc4)[nH]c3-c3ccncc3)ccc2c1 (stereo not drawn),-14.2%,14.7%,-6.58%,-18.1%,-0.725%
Cc1cncc2cccc(S(=O)(=O)N3CCCN(C(=O)CN)C[C@@H]3C)c12,-6.87%,-2%,4.38%,-17.6%,-0.887%
CCOc1cccc(CN(C)C(=O)CN2CC3(CCN(C)CC3)CC2=O)c1,1.32%,2.15%,0.447%,2.51%,1.27%
Cc1nc(C#Cc2ccnc(Cl)c2)c(C)n1-c1ccc(OC(F)(F)F)cc1,-35.7%,-18%,-38.9%,-49.6%,-29.7%
CCc1cccc(NC(=O)Cn2nc3n(C(C)C)c(=O)c4ccc(C(=O)NC(C)C)cc4n3c2=O)c1,1.25%,0%,0.778%,1.81%,4.12%
CCOc1ccc(CCN2C(=O)c3ccc(-c4ccco4)n3CC2(C)C(=O)NCc2ccccc2)cc1OCC (stereo not drawn),-2.74%,6.41%,4.33%,-4.42%,0.774%
CC1=CC(=O)C2C(C)(C)CCC[C@]2(C)[C@H]1CO (stereo partly drawn),-3.01%,-4.86%,7.39%,-18.7%,-6.76%
CCCCOc1nc(N)c2c(n1)N(Cc1cccc(CN3CCCC3)c1)CC(=O)N2,-8.1%,-1.99%,-43.6%,-25.7%,-5.08%
CN(Cc1cc(C2CC2)n[nH]1)c1cc(C2CC(N)C2)nc(N)n1 (stereo not drawn),-0.384%,1.98%,-15.2%,-6.98%,11.8%
CN(C)c1cccc(-c2c3c(=O)n(-c4ccccc4Cl)[nH]c3cc(=O)n2C)c1,-7.88%,-13.1%,0.082%,-32.9%,-5.13%
Cc1ccc(Nc2ncc(C(=O)N3CCN(c4ccc(F)cc4)CC3)c3ccccc23)cc1Cl,,-28%,,-38.7%,-11.4%
O=c1[nH]c2ccc(S(=O)(=O)NCCO)cc2[nH]1,-3.65%,0.562%,-3.28%,3.05%,-10.2%
O=C(Cn1c(=O)oc2cc(S(=O)(=O)N3CCCC3)ccc21)Nc1ccc(F)c(Cl)c1,-3.07%,6.09%,4.04%,-1.77%,-46.6%
COC(=O)C1=C(C)NC(C)=C(C(=O)OCCN(C)Cc2ccccc2)C1c1cccc([N+](=O)[O-])c1 (stereo not drawn),0.476%,14.2%,5.25%,-6.01%,-0.219%
CC(C)(C)C(=O)N1CC[C@@H](CC(=O)O)[C@@H](CCN2CCC[C@H]2C(N)=O)C1,-1.99%,-4.31%,-1.51%,-2.58%,-5.04%

# — PubChem BioAssay AID1745853 (National Center for Advancing Translational Sciences (NCATS), 2022)
